# The full ranking holds about 81,000 sequences; the median of “one-hybrid fitness for binding NBS DNA” is about -0.1, and the highest 2% start at about 0.36. The list shows a part of the results.
# B1: Caulobacter ParB omega fusion; a variant is named by its letters at X, in order, B8GW30 (parent)
# chain: MESVVVGEPGMSEGRRGLGRGLSALLGEVDAAPAQAPGEQLGGSREAPIEILQRNPDQPRRTFREEDLEDLSNSIREKGVLQPILVRPSPDTAGEYQIVAGERAWRAAQRAGLKTVPIMVRELDDLAVLEIGIIENVQRADLNVLEEALSYKVLMEKFERTQENIAQTIGKSXSHVANXMRLLXLPDEVQSYLVSGELTAXHARAIAAAADPVALAKQIIEGGLSVRETEALARKAPNLSAGKSKGGRPPRVKDTDTQALESDLSSVLGLDVSIDHRGSTGTLTITYATLEQLDDLCNRLTRGI
# Variants of: B1
# Experiment: one-hybrid fitness for binding NBS DNA (the Noc-binding site; scaled: cognate 1, non-cognate 0); higher = stronger binding
# Conditions: with NBS DNA site
# Outline: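 Pre- and post-selection plasmids were Illumina-sequenced, three replicate libraries were pooled, and any variant with under 10 reads was removed. The libraries were Caulobacter ParB with four specificity codons randomised, selected in E. coli USO through a HIS3 reporter whose site is 19 bp from the promoter. Cells grew 48 hours at 37°C on M9 without histidine, with 0.1 mM IPTG and 5 mM 3-AT. Fitness is the log change in variant-to-wild-type read ratio, rescaled against cognate and non-cognate.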
row,Variant,one-hybrid fitness for binding NBS DNA
1,QAAC,≤ 0.2
2,EAIC,≤ 0.2
3,LDYL,≤ 0.2
4,GNLM,≤ 0.2
5,ILES,≤ 0.2
6,PWHS,≤ 0.2
7,ASEA,≤ 0.2
8,RYEF,≤ 0.2
9,QFNM,≤ 0.2
10,NWAG,≤ 0.2
11,KNLC,≤ 0.2
12,NNTW,≤ 0.2
13,KPHT,≤ 0.2
14,IVSS,≤ 0.2
15,QLLS,≤ 0.2
16,EFMW,≤ 0.2
17,SLSD,≤ 0.2
18,VVPG,≤ 0.2
19,ITNA,≤ 0.2
20,SCYP,≤ 0.2
21,RLNV,≤ 0.2
22,KMRL,0.213
23,GSLN,≤ 0.2
24,PLLA,≤ 0.2
25,RYPV,≤ 0.2

row,Variant,one-hybrid fitness for binding NBS DNA
1,LQAS,≤ 0.2
2,FTDL,≤ 0.2
3,TVVS,≤ 0.2
4,NTLM,≤ 0.2
5,QKFF,≤ 0.2
6,HFME,≤ 0.2
7,GPRN,≤ 0.2
8,KKDH,≤ 0.2
9,VFNG,≤ 0.2
10,LTCT,≤ 0.2
11,FNHT,≤ 0.2
12,IKCW,≤ 0.2
13,RWCL,≤ 0.2
14,NHSI,≤ 0.2
15,SQSR,≤ 0.2
16,IASS,≤ 0.2
17,VYLR,≤ 0.2
18,MDSV,≤ 0.2
19,PTPE,≤ 0.2
20,YCKL,≤ 0.2
21,GAEV,≤ 0.2
22,HRFD,≤ 0.2
23,SLLS,≤ 0.2
24,TEFE,≤ 0.2
25,SMSQ,≤ 0.2

row,Variant,one-hybrid fitness for binding NBS DNA
1,WHKR,≤ 0.2
2,MRSP,≤ 0.2
3,FWRT,≤ 0.2
4,QWKY,≤ 0.2
5,AMFT,≤ 0.2
6,HNRS,≤ 0.2
7,MYVS,≤ 0.2
8,APGK,≤ 0.2
9,TLRV,≤ 0.2
10,LTLE,≤ 0.2
11,PHFL,≤ 0.2
12,KTQE,≤ 0.2
13,HNLP,≤ 0.2
14,KRNW,≤ 0.2
15,YTYS,≤ 0.2
16,CLNL,≤ 0.2
17,GAVS,≤ 0.2
18,DPIS,≤ 0.2
19,DRLY,≤ 0.2
20,NDKG,≤ 0.2
21,KYIG,≤ 0.2
22,SIRL,≤ 0.2
23,HVMC,≤ 0.2
24,SFDD,≤ 0.2
25,CMHK,≤ 0.2

row,Variant,one-hybrid fitness for binding NBS DNA
1,EVAL,≤ 0.2
2,ETVT,≤ 0.2
3,TNQL,≤ 0.2
4,QLCG,≤ 0.2
5,CNKG,≤ 0.2
6,RKNQ,≤ 0.2
7,TFSL,≤ 0.2
8,KTPL,≤ 0.2
9,KICG,≤ 0.2
10,SMVI,≤ 0.2
11,IILT,≤ 0.2
12,GRYC,≤ 0.2
13,PKFG,≤ 0.2
14,AVNT,≤ 0.2
15,ILCC,≤ 0.2
16,MVVV,≤ 0.2
17,YGPS,≤ 0.2
18,RWRV,≤ 0.2
19,TCTC,≤ 0.2
20,GMCV,≤ 0.2
21,RDIV,≤ 0.2
22,DGKN,≤ 0.2

# Reference: a collection of fitness landscapes (doi:10.1016/j.celrep.2020.107928)
